# In PubChem BioAssay AID485294 (National Center for Advancing Translational Sciences (NCATS), 2010):
# Among all 370,000 compounds or so, about 150 (0.041%) were called active. Inconclusive means that the source gave no clear call. Such entries were picked first, then a sample of the others. The call rests on the fitted dose curve; in most records, active means well fitted inhibition curve with a large enough effect; inconclusive means small, poorly fitted or top-dose-only effect; inactive means flat fitted curve, though single readings scatter. Potencies of inconclusive entries are left out as doubtful fits.
# Target: Beta-lactamase (Escherichia coli (strain K12)) (UniProt P00811)
# Test: qHTS Inhibitors of AmpC Beta-Lactamase (assay with detergent); further: nearly all actives have a fitted effect of over 25% in size
# Details: AmpC hydrolysis of nitrocefin, absorbance 480 nm, 0.01% Triton; series mostly up to 114 µM
# Summary of the method: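 AmpC (5.3 nM in the dispensed reagent) in 20 mM phosphate pH 7.0 with 0.01% (detergent screen) or 0.0001% Triton X-100 was preincubated with compounds for 15 min at room temperature. Nitrocefin was then added from an 800 uM solution, and hydrolysis was followed at 480 nm.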
# Potency means the concentration at half of the fitted maximal effect; tags describe the fitted curve by direction and shape.
# Chain of UniProt P00811 (P00811 whole entry, looked up): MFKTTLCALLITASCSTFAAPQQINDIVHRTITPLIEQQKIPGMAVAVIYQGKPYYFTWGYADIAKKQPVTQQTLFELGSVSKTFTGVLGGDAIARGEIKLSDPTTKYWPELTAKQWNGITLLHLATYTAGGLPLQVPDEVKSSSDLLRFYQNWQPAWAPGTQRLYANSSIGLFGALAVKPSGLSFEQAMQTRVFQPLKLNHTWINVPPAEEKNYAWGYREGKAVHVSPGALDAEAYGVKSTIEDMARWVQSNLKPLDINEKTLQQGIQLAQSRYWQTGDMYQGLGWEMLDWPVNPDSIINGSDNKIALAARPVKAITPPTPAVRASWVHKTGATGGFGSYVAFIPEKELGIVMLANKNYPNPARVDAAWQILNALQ
row,Structure (SMILES),Potency
1,CCOC(=O)C1C(=O)NCC2CCCC21 (configuration not stated),"inconclusive [inhibitor, full curve, poor fit]"
2,CCc1ccc(/C=C2/Sc3ccccc3N(CC(=O)NCCCOC)C2=O)cc1,"inconclusive [inhibitor, partial curve, poor fit]"
3,COc1ccc(NC(=O)C2CCN(C(=O)c3ccccc3)CC2)c(OC)c1,"inconclusive [inhibitor, single point]"
4,CCOc1ccc(C(O)(c2ccccc2OC)C(CN2CCCC2)c2ccccc2)cc1 (configuration not stated),"inconclusive [inhibitor, partial curve]"
5,CCCC(=O)c1ccc(N2CCOCC2)c(F)c1,inactive
6,FC(F)(F)c1nnc2c(Sc3ccc(Cl)cc3)nc3ccccc3n12,inactive
7,CCOc1ccc2nc(NC(=O)C3CCCN(S(=O)(=O)c4cccc5nonc45)C3)sc2c1 (configuration not stated),"inconclusive [inhibitor, full curve]"
8,O=C(O)[C@H](Cc1ccccc1)NC(=O)N1CCC(Cc2ccccc2)CC1,"inconclusive [inhibitor, partial curve]"
9,Cc1ccc(S(=O)(=O)NCC(=O)OCCOc2cccc(Cl)c2)cc1,"inconclusive [inhibitor, full curve, poor fit]"
10,CC(C)(C)c1ccc(/C=N/NC(=S)NC2CCCCC2)cc1,"inconclusive [inhibitor, partial curve]"
11,COc1ccc(S(=O)(=O)N2CCCCC2)cc1N(C)S(=O)(=O)c1ccccc1,"inconclusive [inhibitor, full curve]"
12,CCOc1cc(/C=N/n2nnnc2N)ccc1OCc1c(C)no[n+]1[O-],"inconclusive [inhibitor, full curve, poor fit]"
13,C/C(=N\OCC(=O)NC(C)C)c1cccs1,inactive
14,Cc1cccc(NC(=O)CN2C(=O)N/C(=C/c3cc(C)n(-c4ccncc4)c3C)C2=O)c1,inactive
15,CC(=O)Nc1ccc(S(=O)(=O)Nc2cccc(C(=O)Nc3ccccc3C(=O)O)c2)cc1,"inconclusive [inhibitor, full curve, poor fit]"
16,CCN(CC)CCC(=O)N1c2ccccc2CCc2ccc(NC(=O)OC)cc21,"inconclusive [inhibitor, full curve, poor fit]"
17,Cc1ccccc1OCC(=O)NN1C(=O)C2C3C=CC(O3)C2C1=O (configuration not stated),"inconclusive [inhibitor, full curve, poor fit]"
18,Cc1ccc(C)c(NC(=O)CSc2nnc(CNC(=O)c3ccccc3)n2-c2ccccc2)c1,"inconclusive [inhibitor, single point]"
19,Cc1[nH]c2ccc(C(=O)NCCCN3CCCC3)cc2c1C,"inconclusive [inhibitor, partial curve, poor fit]"
20,CCOc1ccccc1NC(=O)NCc1cccnc1,"inconclusive [inhibitor, partial curve]"
21,O=C(CCCN=C1NS(=O)(=O)c2ccccc21)OCC(=O)c1ccccc1Cl,"inconclusive [inhibitor, full curve, poor fit]"

row,Structure (SMILES),Potency
1,Cc1cccc(NC(=O)C2CCN(C(=O)c3ccccc3C)CC2)n1,"inconclusive [inhibitor, full curve, poor fit]"
2,CN(C)c1cc(-c2ccc(Cl)cc2)oc(=O)c1Cl,inactive
3,CCn1nc(C)c(NC(=O)CCCSc2nc(-c3ccco3)cc(C(F)(F)F)n2)c1C,"inconclusive [inhibitor, full curve, poor fit]"
4,Cc1ccc2c(Sc3ccccc3)c(C(=O)NCc3ccccc3F)[nH]c2c1,inactive
5,CC(C)(C)n1nnnc1C(c1cc2cc3c(cc2[nH]c1=O)OCO3)N1CCN(c2ccccc2)CC1 (configuration not stated),inactive
6,Clc1cccc(-c2ccc(/C=N/n3cnnc3)o2)c1,"inconclusive [inhibitor, full curve, poor fit]"
7,O=C(Nc1ccccc1C(=O)N1CCCCC1)NC1CCCCC1,inactive
8,COc1ccc2nc(NC(=O)CSc3nc(C)cc(C)n3)sc2c1,"inconclusive [inhibitor, full curve, poor fit]"
9,CC(=O)c1ccc(NC(=O)c2sc(-n3nc(C)c(CCC(C)C)c3C)nc2C)cc1,inactive
10,CC(C)(C)NC(=O)NC(=O)CN1CCN(c2ccccc2O)CC1,"inconclusive [inhibitor, full curve, poor fit]"
11,COC(=O)c1nnn(-c2ccsc2C(=O)OC)c1C(=O)OC,"inconclusive [inhibitor, full curve, poor fit]"
12,CC(=O)Nc1ccc(C(=O)OCC(=O)N(Cc2ccccc2)C(C)(C)C)cc1,"inconclusive [inhibitor, single point]"
13,O=C1[C@@H]2C(Cc3ccc(O)cc3)NC3(C(=O)Nc4ccc(F)cc43)[C@@H]2C(=O)N1c1ccccc1 (some centres not stated),"inconclusive [inhibitor, partial curve]"
14,CCNC(=O)/C=C1\NC(C)(C)Cc2c1ccc1ccccc21,"inconclusive [inhibitor, single point]"
15,O=C(CC1C(=O)OCCN1Cc1ccccc1)Nc1cccc(Cl)c1 (configuration not stated),inactive
16,Cc1ccc(/C(=N\O)c2oc3c(C)c4oc(=O)cc(C)c4cc3c2C)cc1,"inconclusive [inhibitor, full curve, poor fit]"
17,CCOc1ccc2ccccc2c1/C=N/n1cncn1,inactive
18,Cc1ccc(Cl)cc1N1CCN(C(=O)c2cc3c(=O)n(C)c4ccccc4c3n2C)CC1,"inconclusive [inhibitor, full curve, poor fit]"
19,Cn1nc(OCCOc2ccccc2)ccc1=O,"inconclusive [inhibitor, partial curve, poor fit]"
20,COc1ccccc1NS(=O)(=O)c1ccccc1C#N,"inconclusive [inhibitor, full curve, poor fit]"
21,N#CC1=C(N)S[C@H](C(=O)C23CC4CC(CC(C4)C2)C3)[C@H]1c1ccncc1,"inconclusive [inhibitor, full curve]"
